# The supplement of paper PMC8728848
# This is one part of the list.
# B1: NPA (Narcissus pseudonarcissus), C0HM45 (protein)
# chain: DNILYSGETLSPGEFLNNGRYVFIMQEDCNLVLYDVDKPIWATNTGGLDRRCHLSMQSDGNLVVYSPRNNPIWASNTGGENGNYVCVLQKDRNVVIYGTARWATGTNIH
# Columns and labels:
# Assay in all cases: glycan array binding signal (z-score within array); higher = stronger binding
# Conditions in all cases: glycan notation: IUPAC condensed, linker removed
# Gal3S6S(b1-4)GlcNAc = target: Gal3S6S(b1-4)GlcNAc
# Procedure, shortened: (§1)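 Glycan array data were curated from 3228 arrays in the Consortium for Functional Glycomics database and kept only where the protein sequence was available. Glycan names were converted to IUPAC-condensed notation, and columns mapping to the same glycan were averaged. The binding signal is a within-array Z-score, averaged across arrays of the same protein sequence at different concentrations or buffers and across linkers. Negative Z-scores can be read as non-binding.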
# Gal3S6S(b1-4)GlcNAc6S = target: Gal3S6S(b1-4)GlcNAc6S
# Procedure, shortened: as §1
# Gal4S(b1-4)GlcNAc = target: Gal4S(b1-4)GlcNAc
# Procedure, shortened: as §1
# Gal4S6S(b1-4)GlcNAc = target: Gal4S6S(b1-4)GlcNAc
# Procedure, shortened: as §1
# Gal6P(b1-4)GlcNAc = target: Gal6P(b1-4)GlcNAc
# Procedure, shortened: as §1
# Gal6S(b1-3)GlcNAc = target: Gal6S(b1-3)GlcNAc
# Procedure, shortened: as §1
# Gal6S(b1-3)GlcNAc6S = target: Gal6S(b1-3)GlcNAc6S
# Procedure, shortened: as §1
# Gal6S(b1-4)Glc = target: Gal6S(b1-4)Glc
# Procedure, shortened: as §1
# Gal6S(b1-4)Glc6S = target: Gal6S(b1-4)Glc6S
# Procedure, shortened: as §1
# Gal6S(b1-4)GlcNAc = target: Gal6S(b1-4)GlcNAc
# Procedure, shortened: as §1
# Gal6S(b1-4)GlcNAc6S = target: Gal6S(b1-4)GlcNAc6S
# Procedure, shortened: as §1
# GalNAc(a1-3)Gal = target: GalNAc(a1-3)Gal
# Procedure, shortened: as §1
# GalNAc(a1-3)GalNAc = target: GalNAc(a1-3)GalNAc
# Procedure, shortened: as §1
# [1] = target: GalNAc(a1-3)GalNAc(a1-3)Gal(a1-4)Gal(b1-4)GlcNAc
# Procedure, shortened: as §1
# [2] = target: GalNAc(a1-3)GalNAc(b1-3)Gal(a1-4)Gal(b1-4)Glc
# Procedure, shortened: as §1
# GalNAc(b1-3)Gal = target: GalNAc(b1-3)Gal
# Procedure, shortened: as §1
# [3] = target: GalNAc(b1-3)Gal(a1-4)Gal(b1-4)GlcNAc
# Procedure, shortened: as §1
# [4] = target: GalNAc(b1-3)Gal(a1-4)Gal(b1-4)GlcNAc(b1-3)Gal(b1-4)Glc
# Procedure, shortened: as §1
# [5] = target: GalNAc(b1-3)Gal(a1-6)Gal(b1-4)Glc
# Procedure, shortened: as §1
# GalNAc(b1-3)GalNAc = target: GalNAc(b1-3)GalNAc
# Procedure, shortened: as §1
# GalNAc(b1-3)GlcNAc = target: GalNAc(b1-3)GlcNAc
# Procedure, shortened: as §1
# GalNAc(b1-4)Gal(b1-4)Glc = target: GalNAc(b1-4)Gal(b1-4)Glc
# Procedure, shortened: as §1
# GalNAc(b1-4)GlcNAc = target: GalNAc(b1-4)GlcNAc
# Procedure, shortened: as §1
# [6] = target: GalNAc(b1-4)GlcNAc(b1-2)Man
# Procedure, shortened: as §1
# [7] = target: GalNAc(b1-4)GlcNAc(b1-2)Man(a1-3)[GalNAc(b1-4)GlcNAc(b1-2)Man(a1-6)]Man(b1-4)GlcNAc(b1-4)GlcNAc
# Procedure, shortened: as §1
# [8] = target: GalNAc(b1-4)GlcNAc(b1-3)GalNAc(b1-4)GlcNAc
# Procedure, shortened: as §1
# GalNAc(b1-4)GlcNAc6S = target: GalNAc(b1-4)GlcNAc6S
# Procedure, shortened: as §1
# GalNAc(b1-6)GalNAc = target: GalNAc(b1-6)GalNAc
# Procedure, shortened: as §1
# GalNAc3S(b1-4)GlcNAc = target: GalNAc3S(b1-4)GlcNAc
# Procedure, shortened: as §1
# GalNAc3S(b1-4)GlcNAc3S = target: GalNAc3S(b1-4)GlcNAc3S
# Procedure, shortened: as §1
# [9] = target: GalNAc3S(b1-4)[Fuc(a1-3)]GlcNAc
# Procedure, shortened: as §1
# GalNAc4S6S(b1-4)GlcNAc = target: GalNAc4S6S(b1-4)GlcNAc
# Procedure, shortened: as §1
# GalNAc6S(b1-4)GlcNAc = target: GalNAc6S(b1-4)GlcNAc
# Procedure, shortened: as §1
# Glc(a1-4)Glc = target: Glc(a1-4)Glc
# Procedure, shortened: as §1
# [10] = target: Glc(a1-4)Glc(a1-4)Glc(a1-4)Glc
# Procedure, shortened: as §1
# Glc(a1-6)Glc(a1-6)Glc = target: Glc(a1-6)Glc(a1-6)Glc
# Procedure, shortened: as §1
# [11] = target: Glc(a1-6)Glc(a1-6)Glc(a1-6)Glc
# Procedure, shortened: as §1
# Glc(b1-4)Glc = target: Glc(b1-4)Glc
# Procedure, shortened: as §1
# Glc(b1-6)Glc = target: Glc(b1-6)Glc
# Procedure, shortened: as §1
# GlcA(b1-3)Gal = target: GlcA(b1-3)Gal
# Procedure, shortened: as §1
# GlcA(b1-3)GlcNAc = target: GlcA(b1-3)GlcNAc
# Procedure, shortened: as §1
# GlcA(b1-6)Gal = target: GlcA(b1-6)Gal
# Procedure, shortened: as §1
# [12] = target: GlcA3S(b1-3)Gal(b1-4)GlcNAc(b1-2)Man
# Procedure, shortened: as §1
# [13] = target: GlcA3S(b1-3)Gal(b1-4)GlcNAc(b1-3)Gal(b1-4)Glc
# Procedure, shortened: as §1
# [14] = target: GlcNAc(a1-3)Gal(b1-4)GlcNAc
# Procedure, shortened: as §1
binder,measurement,setting,value
B1,glycan array binding signal (z-score),Gal3S6S(b1-4)GlcNAc,-0.153
same,glycan array binding signal (z-score),Gal3S6S(b1-4)GlcNAc6S,-0.154
same,glycan array binding signal (z-score),Gal4S(b1-4)GlcNAc,-0.172
same,glycan array binding signal (z-score),Gal4S6S(b1-4)GlcNAc,-0.144
same,glycan array binding signal (z-score),Gal6P(b1-4)GlcNAc,-0.181
same,glycan array binding signal (z-score),Gal6S(b1-3)GlcNAc,-0.154
same,glycan array binding signal (z-score),Gal6S(b1-3)GlcNAc6S,-0.148
same,glycan array binding signal (z-score),Gal6S(b1-4)Glc,-0.154
same,glycan array binding signal (z-score),Gal6S(b1-4)Glc6S,-0.137
same,glycan array binding signal (z-score),Gal6S(b1-4)GlcNAc,-0.152
same,glycan array binding signal (z-score),Gal6S(b1-4)GlcNAc6S,-0.154
same,glycan array binding signal (z-score),GalNAc(a1-3)Gal,-0.152
same,glycan array binding signal (z-score),GalNAc(a1-3)GalNAc,-0.158
same,glycan array binding signal (z-score),[1],-0.148
same,glycan array binding signal (z-score),[2],-0.143
same,glycan array binding signal (z-score),GalNAc(b1-3)Gal,-0.146
same,glycan array binding signal (z-score),[3],-0.155
same,glycan array binding signal (z-score),[4],-0.138
same,glycan array binding signal (z-score),[5],-0.144
same,glycan array binding signal (z-score),GalNAc(b1-3)GalNAc,-0.153
same,glycan array binding signal (z-score),GalNAc(b1-3)GlcNAc,-0.148
same,glycan array binding signal (z-score),GalNAc(b1-4)Gal(b1-4)Glc,-0.129
same,glycan array binding signal (z-score),GalNAc(b1-4)GlcNAc,-0.131
same,glycan array binding signal (z-score),[6],-0.115
same,glycan array binding signal (z-score),[7],0.008
same,glycan array binding signal (z-score),[8],-0.118
same,glycan array binding signal (z-score),GalNAc(b1-4)GlcNAc6S,-0.151
same,glycan array binding signal (z-score),GalNAc(b1-6)GalNAc,-0.151
same,glycan array binding signal (z-score),GalNAc3S(b1-4)GlcNAc,-0.15
same,glycan array binding signal (z-score),GalNAc3S(b1-4)GlcNAc3S,-0.16
same,glycan array binding signal (z-score),[9],-0.152
same,glycan array binding signal (z-score),GalNAc4S6S(b1-4)GlcNAc,-0.155
same,glycan array binding signal (z-score),GalNAc6S(b1-4)GlcNAc,-0.135
same,glycan array binding signal (z-score),Glc(a1-4)Glc,-0.144
same,glycan array binding signal (z-score),[10],-0.139
same,glycan array binding signal (z-score),Glc(a1-6)Glc(a1-6)Glc,-0.15
same,glycan array binding signal (z-score),[11],-0.145
same,glycan array binding signal (z-score),Glc(b1-4)Glc,-0.152
same,glycan array binding signal (z-score),Glc(b1-6)Glc,-0.141
same,glycan array binding signal (z-score),GlcA(b1-3)Gal,-0.148
same,glycan array binding signal (z-score),GlcA(b1-3)GlcNAc,-0.14
same,glycan array binding signal (z-score),GlcA(b1-6)Gal,-0.141
same,glycan array binding signal (z-score),[12],-0.154
same,glycan array binding signal (z-score),[13],-0.142
same,glycan array binding signal (z-score),[14],-0.141
